Read counts are not given, so values of variants with three or more changes are uncertain.
B1: LINE1-mini (parent)
chain: GGCAGAGCUCAACACAGCGUGGCAAAGUGGCUGUGGCUAGACUGCC

Variants of: B1
Experiment: self-cleavage, relative activity (ratio to wild type); higher = more cleavage; in vitro, sequencing; the parent is a self-cleaving ribozyme

Q: Which self-cleavage does the source give for GGCUGAGCUCAACACAGCGUCGUAAAGAGGUUGUGGCUAGACUGCC [A4U G21C C23U U28A C31U] here?
A: The self-cleavage was 0.03.

Q: For GGCUGAGCUCAACACAGCGUGGCAAAGUCGCUGUGGCUAGACUGGC [A4U G29C C45G], which self-cleavage is on record?
A: Its self-cleavage is 0.03.

Q: For GGCUGAGCUCAACACAGCGAGGUAAAGUGGGUGUGGAUCGACUGCC [A4U U20A C23U C31G C37A A39C], which self-cleavage is on record?
A: The self-cleavage was 0.

Q: With GGCUGAGCUCAACACAGCAUGGCAAAGUGGCUUUGGCUAGACUGCC [A4U G19A G33U] as the variant, how does the self-cleavage read?
A: The self-cleavage was 0.09.

Q: With GGCUGACCUCAACACAGCUUGGCAAAGUUACUGUGGCUAGACUGCC [A4U G7C G19U G29U G30A] as the variant, how does the self-cleavage read?
A: Its self-cleavage is 0.03.

Q: Which self-cleavage does the source give for GGCUGACCUCAACAAAGCGUGGCAAAGUGGCUCUGGCGAGACUGCC [A4U G7C C15A G33C U38G] here?
A: The self-cleavage was 0.07.

Q: Which self-cleavage does the source give for GGCUGAGCUCAACACAGCGUAGGAAAGUGUCUGUGGCUAGACUUCC [A4U G21A C23G G30U G44U] here?
A: The self-cleavage was 0.03.

Q: With GGCUUAACGCAACACAGCGUGGCAACGAGGCUGUGGCUAGACUGCC [A4U G5U G7A U9G A26C U28A] as the variant, how does the self-cleavage read?
A: Its self-cleavage is 0.04.

Q: With GGCUGAACCCAUCACAGCGCGGCAAAGUGGCUGUGGCUCGACUGCU [A4U G7A U9C A12U U20C A39C C46U] as the variant, how does the self-cleavage read?
A: The self-cleavage was 0.02.

Q: Which self-cleavage does the source give for GGCUGAGCUCAACACAGCGUGGCAAAGUGGCUCUGGCUAGACUGAC [A4U G33C C45A] here?
A: The self-cleavage was 0.02.

Q: With GGCUUAGCUCAAACCAGCGUGGCAAAGUGGCUGUGGCUUGACUGCC [A4U G5U C13A A14C A39U] as the variant, how does the self-cleavage read?
A: Its self-cleavage is 0.02.

Q: For GGCUGAUCUCAACACAGCGUGGUUAAGUGGCUGUGGCUAAACUGCC [A4U G7U C23U A24U G40A], which self-cleavage is on record?
A: The self-cleavage was 0.15.

Q: For GGCUGAGCGCAACACAGCGAGGCGACGUGGCUGUGGCUAGACUGCC [A4U U9G U20A A24G A26C], which self-cleavage is on record?
A: Its self-cleavage is 0.03.

Q: With GGCUGAGCUCAACACAGCGUGGCAAAGUGGCUGUGACUAGACGGCU [A4U G36A U43G C46U] as the variant, how does the self-cleavage read?
A: The self-cleavage was 0.1.

Q: For GGCUCAGCUCAACACAGCGUGGCAAAGUGGCUGGGGCUAGACUGCC [A4U G5C U34G], which self-cleavage is on record?
A: The self-cleavage was 0.12.

Q: Which self-cleavage does the source give for GGCUGAGCUCAACACAGCGAGGCAAAGUGGCUGUGGCUAGACUGCU [A4U U20A C46U] here?
A: The self-cleavage was 0.06.

Q: Which self-cleavage does the source give for GGCUCAGCUCAACACAGCGUGGCAAACUGGCUGUGGCUAGACUGCC [A4U G5C G27C] here?
A: The self-cleavage was 0.04.

Q: For GGCUGAGCUCAACACAGCGUGGCAAAGUGGCUGUGCCUGGACUGCC [A4U G36C A39G], which self-cleavage is on record?
A: Its self-cleavage is 0.04.

Q: Which self-cleavage does the source give for GGCUGAGCUCAACACACAAUGGCAAAGUGGCUGUGGCUAGACUGCC [A4U G17C C18A G19A] here?
A: Its self-cleavage is 0.02.

Q: For GGCUGAGCUCAACACAGCGUGGCAAAAUUGCUGUGGCUAGACUGCC [A4U G27A G29U], which self-cleavage is on record?
A: Its self-cleavage is 0.22.

Q: With GGCUGAGCUCAACACAGCUUGGCAAAGUGUCUGUGGCUAGACUGCC [A4U G19U G30U] as the variant, how does the self-cleavage read?
A: Its self-cleavage is 0.06.

Q: Which self-cleavage does the source give for GGCUGAGCUCAACACAGCUUGGCAAAGUGACUGUGGCUAGACUGCC [A4U G19U G30A] here?
A: The self-cleavage was 0.05.

Q: Which self-cleavage does the source give for GGCUGAGCUCAACACAGCUGGGCAAGGUGGCUGUGGCUAGGAAGCC [A4U G19U U20G A26G A41G C42A U43A] here?
A: The self-cleavage was 0.03.

Q: For GGCUGAGCUCAACACAGCGUGGCAAACUGGCUAUGGCUAGACUGCC [A4U G27C G33A], which self-cleavage is on record?
A: Its self-cleavage is 0.13.

Q: Which self-cleavage does the source give for GGCUGAGCUCAACACAGCGUGCCAAAGUAGCUGUAGCUAGACUGCC [A4U G22C G29A G35A] here?
A: The self-cleavage was 0.06.

Q: With GGCUGAACUCAACACAGCAUGGCAAAGUGGCUGUGGCUAGACUGCC [A4U G7A G19A] as the variant, how does the self-cleavage read?
A: The self-cleavage was 0.47.

Q: With GGCUGACCUCAACACAGCGUGGCAAAGCGGCUGUGGCUAGACUGAC [A4U G7C U28C C45A] as the variant, how does the self-cleavage read?
A: Its self-cleavage is 0.08.

Q: Which self-cleavage does the source give for GGCUGAGCUCAACACAGCCUGGCAAACUGGCUGUUGCUAGACUGCC [A4U G19C G27C G35U] here?
A: The self-cleavage was 0.11.

Q: For GGCUGAGCUCAACACAGCGUGGCAAAGUCGCUGUGGCUCGACUGCC [A4U G29C A39C], which self-cleavage is on record?
A: The self-cleavage was 0.02.

Q: For GGCUGAGCUCAACACAGCGGGGCAAAGUGGCUGUGGGUAGACUGCC [A4U U20G C37G], which self-cleavage is on record?
A: The self-cleavage was 0.02.

Q: With GGCUUAGCUCAACACAGCGUGGAAGAGUGGCUGUGGCCAGACUGCC [A4U G5U C23A A25G U38C] as the variant, how does the self-cleavage read?
A: Its self-cleavage is 0.03.

Q: With GGCUGAGCACAACACAGCGUGGCAAAGUGGCUGUGGCUAGACUGCU [A4U U9A C46U] as the variant, how does the self-cleavage read?
A: The self-cleavage was 0.27.

Q: Which self-cleavage does the source give for GGCUGAGCUCAACACAGCGUAGCAAAGUGGCUAUGUCUAGACUGCC [A4U G21A G33A G36U] here?
A: The self-cleavage was 0.13.

Q: For GGCUGAGCUCAACACAGCGUGGCAAAGUGGCUGUGCCAAGACUGCC [A4U G36C U38A], which self-cleavage is on record?
A: Its self-cleavage is 0.1.

Q: For GGCUUACCUCAACACAGCGUGGCAAAGUGGCUGUGGCUAGACUGCC [A4U G5U G7C], which self-cleavage is on record?
A: The self-cleavage was 0.04.

Q: With GGCUGAGCGCAAGACAGCGGGGCAAAGUGGCUGUGGCUAGACUGCC [A4U U9G C13G U20G] as the variant, how does the self-cleavage read?
A: Its self-cleavage is 0.07.

Q: Which self-cleavage does the source give for GGCUGAGCCCAACACAGCGUGGCAAAGUGGCUGUGGCUAGGCUACC [A4U U9C A41G G44A] here?
A: The self-cleavage was 0.03.

Q: For GGCUGAGCUCAACACAGCGUGGCAAAAUGGCUGUAGCUAGAUUGCC [A4U G27A G35A C42U], which self-cleavage is on record?
A: Its self-cleavage is 0.

Q: Which self-cleavage does the source give for GGCUGAGCUCAACACAGCGUGGCAAAAUGGCAGUGGCUACACCGUC [A4U G27A U32A G40C U43C C45U] here?
A: Its self-cleavage is 0.02.

Q: Which self-cleavage does the source give for GGCUGAACACAACACAGCGUGGCAAAGGGGCUGUGGCUAGACUGCC [A4U G7A U9A U28G] here?
A: The self-cleavage was 0.03.

Q: With GGCUGAGCUCAACACAGCGUGCCAGAGUGGCUGUGGUUAGACUGCC [A4U G22C A25G C37U] as the variant, how does the self-cleavage read?
A: Its self-cleavage is 0.

Q: For GGCUGAGCUCAACACAGCGGGGCAAAGUGGCUGUUGCUAGACUGCC [A4U U20G G35U], which self-cleavage is on record?
A: Its self-cleavage is 0.02.

Q: For GGCUGAGCUCAACACAACGUGGCAAACAGGCUGUGGCUAGACUGCA [A4U G17A G27C U28A C46A], which self-cleavage is on record?
A: The self-cleavage was 0.03.

Q: With GGCUGAGCUCAACACAGCGUGGCAAAGUGGCUGUAGCUAGUCUGCC [A4U G35A A41U] as the variant, how does the self-cleavage read?
A: The self-cleavage was 0.04.

Q: Which self-cleavage does the source give for GGCUGAGCUCAACACAACGUAGCGAAGUGGCUGUGGCUUGACUGCC [A4U G17A G21A A24G A39U] here?
A: Its self-cleavage is 0.02.

Q: With GGCUGAAAUCAAAACAGCGUGGCAAAGUGGCUGGGGCUAGACUCCC [A4U G7A C8A C13A U34G G44C] as the variant, how does the self-cleavage read?
A: Its self-cleavage is 0.12.

Q: Which self-cleavage does the source give for GGCUGACCUCAACACAGCGUGGCAAAGUGGCUGUGGCUACACUGCC [A4U G7C G40C] here?
A: The self-cleavage was 0.

Q: For GGCUUAGCUCAACACAGCGUGGCAAAGUGGCUGUCGCUAGACUGCC [A4U G5U G35C], which self-cleavage is on record?
A: The self-cleavage was 0.08.

Q: With GGCUGAUCUCAACACUGCGUGGCAAAGUGGCUGUGGCUAGCCUGCC [A4U G7U A16U A41C] as the variant, how does the self-cleavage read?
A: Its self-cleavage is 0.13.

Q: With GGCUGAGCUCAACACAGCGUAGCAAAGUGGCUGUGACUAGAUUGCC [A4U G21A G36A C42U] as the variant, how does the self-cleavage read?
A: The self-cleavage was 0.02.

Q: For GGCUGAGCUCAACACACCGAGGCAAAAUGGCUCUGGCUAGACUGCC [A4U G17C U20A G27A G33C], which self-cleavage is on record?
A: The self-cleavage was 0.02.

Q: With GGCUGAGCUCAACACAGCGAGGCAAAGUGGCUGUGGCUAGACUGUC [A4U U20A C45U] as the variant, how does the self-cleavage read?
A: Its self-cleavage is 0.06.

Q: With GGCUGAGCUCAACACAGCUUGGCAAAGUAGCUGUGGCAAGAUUGCC [A4U G19U G29A U38A C42U] as the variant, how does the self-cleavage read?
A: The self-cleavage was 0.05.

Q: With GGCUGAGCUCAACACAGCCUGGCAAAGUGGCUGUGGCUAGAAUGCC [A4U G19C C42A] as the variant, how does the self-cleavage read?
A: The self-cleavage was 0.03.

Q: With GGCUGAGCUCAACACAGCUUGGCAACGUGCCUAUCGCUGGACUACC [A4U G19U A26C G30C G33A G35C A39G G44A] as the variant, how does the self-cleavage read?
A: The self-cleavage was 0.03.

Q: Which self-cleavage does the source give for GGCUGAGCUCAACACAACGUGGCAAUGUGGCUGUGGCUAGACUGCC [A4U G17A A26U] here?
A: The self-cleavage was 0.15.

Reference: the RNAGym collection of RNA variant scans (doi:10.7554/elife.90254)
